Measured values as given in paper PMC4336329 (PLoS ONE, 2015).
Among all 310,000 compounds or so, about 14,000 (4.5%) showed an effect of 50% or more. The effect is printed as a negative number. The list shows a part of the results.

These compounds were tested against human ether-à-go-go-related gene (hERG) potassium channel (human, UniProt Q12809) (assay: primary screen, population patch clamp on CHO cells stably expressing hERG).
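Note: peak tail current of the secondary pulse compared with the same well before compound.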

human ether-à-go-go-related gene (hERG) potassium channel, sequence (Q12809 whole entry, looked up): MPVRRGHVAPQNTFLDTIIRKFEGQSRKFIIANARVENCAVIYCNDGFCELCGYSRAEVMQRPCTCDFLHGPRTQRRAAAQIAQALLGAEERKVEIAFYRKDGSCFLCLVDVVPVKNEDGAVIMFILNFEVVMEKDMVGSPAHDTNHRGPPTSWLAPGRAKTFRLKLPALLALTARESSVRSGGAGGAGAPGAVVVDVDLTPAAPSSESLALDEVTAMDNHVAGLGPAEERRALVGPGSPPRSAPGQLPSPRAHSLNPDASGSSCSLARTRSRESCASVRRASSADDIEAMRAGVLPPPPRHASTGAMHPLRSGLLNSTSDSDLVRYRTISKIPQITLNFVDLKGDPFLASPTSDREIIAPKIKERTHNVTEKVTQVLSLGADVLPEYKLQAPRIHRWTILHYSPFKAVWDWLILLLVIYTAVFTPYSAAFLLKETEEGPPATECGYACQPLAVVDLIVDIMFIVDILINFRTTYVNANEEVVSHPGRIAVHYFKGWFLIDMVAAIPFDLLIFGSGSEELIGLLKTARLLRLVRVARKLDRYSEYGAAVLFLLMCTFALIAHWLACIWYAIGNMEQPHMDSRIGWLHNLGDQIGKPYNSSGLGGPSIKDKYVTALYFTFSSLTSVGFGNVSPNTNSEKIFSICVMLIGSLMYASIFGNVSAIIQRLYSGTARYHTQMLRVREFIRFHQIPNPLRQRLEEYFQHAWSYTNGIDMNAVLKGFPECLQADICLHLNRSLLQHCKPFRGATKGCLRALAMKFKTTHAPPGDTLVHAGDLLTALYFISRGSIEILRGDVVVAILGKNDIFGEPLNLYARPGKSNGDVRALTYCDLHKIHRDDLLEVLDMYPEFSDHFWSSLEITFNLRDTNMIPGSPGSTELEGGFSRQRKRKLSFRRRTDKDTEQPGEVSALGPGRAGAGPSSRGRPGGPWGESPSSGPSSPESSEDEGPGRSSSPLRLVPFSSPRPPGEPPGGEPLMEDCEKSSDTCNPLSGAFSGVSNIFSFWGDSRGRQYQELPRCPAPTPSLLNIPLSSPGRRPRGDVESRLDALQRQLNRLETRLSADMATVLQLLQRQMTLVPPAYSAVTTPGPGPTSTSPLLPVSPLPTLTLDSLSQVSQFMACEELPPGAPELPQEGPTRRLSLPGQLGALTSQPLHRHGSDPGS

SMILES | hERG current change (%, negative = inhibition) at 10uM [%]
CC(C)N(CC#CC(O)(c1ccccc1)c1ccccc1)C(C)C | -70.4
Cc1cccc(NC(=S)N/N=C/C(C)c2ccccc2)c1C (stereo not drawn) | 21.9
CC(C)n1c(CN2CCN(C(=O)c3ccco3)CC2)nc2c1c(=O)n(C)c(=O)n2C | -7.57
Cc1ccccc1NC(=S)C1=C(O)c2sccc2N(C)S1(=O)=O | 12.2
CCOC(=O)C1CCCN(Cc2nc3ccc([N+](=O)[O-])cc3c(=O)n2-c2ccc(OC)cc2OC)C1 (stereo not drawn) | -28.9
COc1ccc(/C(C)=N/NC(=O)C(NC(=O)c2ccccc2)c2n[nH]c(=O)c3ccccc23)c(OC)c1 (stereo not drawn) | 4.11
CC(C)CNC(=O)C(=O)NC1CCCC1 | 11.7
C/C(=N/NC(=O)CNC(=O)c1ccco1)c1ccc(Cl)cc1 | -1.47
COC(=O)CNC(=O)C12CC3(C)CC(C)(CC(C)(C3)C1)C2 | 7.88
Cc1ccc(C(=O)OCC(=O)Nc2ccc(C(N)=O)cc2)s1 | 10.1
COc1ccc(/C=C/C(=O)NCC(=O)N/N=C/c2cc(Br)ccc2OCc2ccccc2)cc1 | -0.646
Cc1ccccc1OCC(=O)N1CCCc2ccccc21 | -10.2
COc1cc(C2C(=O)c3ccccc3C2=O)ccc1O | 18.4
O=C(NCC1CCCO1)C1c2ccccc2C(=O)N1C1CCCCCCC1 (stereo not drawn) | -0.14
CCCCN(C(=O)CN1C(=O)C2CCCCC2C1=O)c1c(N)n(CCCC)c(=O)[nH]c1=O (stereo not drawn) | -8.58
NC(=O)CSc1nnc(-c2ccc(S(=O)(=O)N3CCCC3)cc2)o1 | 5.83
CN[C@H]1C[C@H]2O[C@@](C)([C@H]1OC)n1c3ccccc3c3c4c(c5c6ccccc6n2c5c31)C(=O)NC4 | 0.476
CCOc1cc(CN2CCCCC2)ccc1OC | -8.28
CCN1CCN(S(=O)(=O)c2cnc(Cl)c(Br)c2)CC1 | 46
CCN(CC)c1ccc(N=Cc2ccc(N(CC)CC)cc2O)cc1 | 0.156
O=C(COc1cccc(C(F)(F)F)c1)NCC(c1ccco1)N1CCCCC1 (stereo not drawn) | -36.5
CC(=O)NCCc1nc2ccccc2n1CCOc1cccc(C)c1 | 3.45

SMILES | hERG current change (%, negative = inhibition) at 10uM [%]
Nc1c(-c2ccccc2)c(CSc2nc3ccccc3[nH]2)nn1-c1ccc(Cl)cc1 | 7.01
O=C(O)C1=C[C@H](c2ccc(Br)cc2)C[C@H](OCc2ccc(CO)cc2)O1 | 15.1
CN1C(=O)N(S(=O)(=O)c2ccc(F)c(F)c2F)C(=O)C1(C)C | 10.3
O=C(N/N=C(/CC(=O)c1cccs1)C(F)(F)F)c1ccc(O)cc1 | 9.01
Cl.Oc1ccc(N2CCN(C(c3cccs3)c3nnnn3CCc3ccccc3)CC2)cc1 (stereo not drawn) | 5.4
CCOC(=O)[C@H]1[C@H]2COc3ccc(OC)cc3[C@@H]2N2C(=O)CN(CC3CCCO3)C(=O)[C@@]12C (stereo partly drawn) | 18.4
FC(F)(F)c1cc(-c2ccccc2)nc(NCC2CCCO2)n1 (stereo not drawn) | -0.375
O=C(/C=C/c1ccc(OC2CSC2)cc1)c1ccc(Cl)cc1 | 2.42
CCOC(=O)C1=C(O)C(=O)N(Cc2cccnc2)C1c1ccc(C)cc1 (stereo not drawn) | 18.9
Cc1ncc(CO)c(/C=N/NC(=O)c2ccc(O)cc2)c1O | -5.98
COc1ccc(CC2(C)OC(c3ccc([N+](=O)[O-])cc3)=NN2C(C)=O)cc1 (stereo not drawn) | -45.6
O=C(c1cccs1)C1CN2CCC1CC2 (stereo not drawn) | -4.77
O=[N+]([O-])c1cc(NS(=O)(=O)c2ccc(Cl)nc2)ccc1Cl | -19.1
Cc1ccc(NC(=O)Cn2cccc2C2=NC(c3ccccc3)CO2)cc1C (stereo not drawn) | 7.13
CCC(C(=O)Nc1ccc([N+](=O)[O-])cn1)c1ccccc1 (stereo not drawn) | -67.4
COc1ccc(-n2c(SCC(=O)c3ccc[nH]3)nnc2-c2ccccc2)cc1 | 18.6
O=S(=O)(c1cnc[nH]1)N1CCN(c2ccc(Cl)cc2)CC1 | 6.03
CN(C(=O)CN1C(=O)/C(=C/c2ccc(Cl)cc2)SC1=S)C1CCS(=O)(=O)C1 (stereo not drawn) | -0.855
CCCN1C(=O)C2(SC(NC(C)=O)=NN2C(C)=O)c2cc(C)ccc21 (stereo not drawn) | 39.1
CCCCCn1c(=O)c(C(=O)Nc2ccccc2)c(O)c2ccccc21 | 17.4
CCOC(=O)CN1NC2(CCCCCCC2)NC1=S | 12
COc1ccc(C(=O)OCC(O)COC(=O)c2ccc(OC)cc2)cc1 | -23.2

SMILES | hERG current change (%, negative = inhibition) at 10uM [%]
CCOC(=O)c1nc2cc3n(c(C)c-2c1C)C(C)C(C)=C3C.Cl (stereo not drawn) | -42.8
Cc1ccn2cc(-c3cccc(S(=O)(=O)N4CCCCC4)c3)nc2c1 | -27.6
CCCC(c1nnnn1Cc1ccco1)N1CCN(c2ccccc2)CC1.Cl (stereo not drawn) | -19.6
CCOC(=O)c1c(C)n(C)c2ccc(OCC(O)CN3CCN(C)CC3)cc12.Cl (stereo not drawn) | -2.18
CCSc1nnc(SCC(=O)NC2CCCCC2)s1 | 1.38
CCCn1c(=O)c2ccccc2n2c(SC(C)C(N)=O)nnc12 (stereo not drawn) | 12.2
CC(C)N(C(C)C)S(=O)(=O)c1ccc(N2CCc3ccccc3C2)nc1 | 12.3
CCN(CC)C(=O)C(=O)N/N=C/c1ccc(Br)cc1 | -5.34
Cc1nnc(NC(=O)CSc2ccc(-c3ccco3)nn2)s1 | 9.75
COc1ccc(C(C(=O)NCc2ccccc2)N(Cc2cccnc2)C(=O)c2snc(C(N)=O)c2N)cc1OC (stereo not drawn) | -9.91
Cc1nc(CS(=O)c2ccc(Cl)cc2)cc(N2CCOCC2)n1 (stereo not drawn) | 10.1
CN(C)c1ccc(C2C3C(=O)NC(=O)C3ON2c2ccc(Cl)cc2)cc1 (stereo not drawn) | -64
O=C1Nc2ccccc2C1=O | 3.21
CCn1c(CC(=O)Nc2ccc(C)c(Cl)c2)nnc1SCC(=O)Nc1nc(C)cs1 | 0.625
CN(C)C(=O)O/N=C(\N)COc1ccc(C(C)(C)C)cc1 | 4.28
N=C1S/C(=C\c2ccccc2F)C(=O)N1c1ccc(F)cc1 | 16
O=C(COC(=O)CSc1ccc2ccccc2c1)NCc1ccc2c(c1)OCO2 | 16.3
COc1ccccc1C1CC(c2c(-c3ccccc3)c3cc(Cl)ccc3[nH]c2=O)=NN1S(C)(=O)=O (stereo not drawn) | 12.5
N#Cc1ccccc1OCC(=O)OCC(=O)NC1CCCC1 | 2.74
CCOc1cccc(-c2c(C(=O)N/N=C/c3ccncc3)nnn2-c2nonc2N)c1 | -9.65
O=C(O)c1cccc(N2C(=O)c3cc([N+](=O)[O-])cc4cc([N+](=O)[O-])cc(c34)C2=O)c1 | 20.8
O=C(Nc1cccc2c1CCCC2)c1cc([N+](=O)[O-])cc([N+](=O)[O-])c1 | 8.9

SMILES | hERG current change (%, negative = inhibition) at 10uM [%]
CN1c2ccsc2C(O)=C(C(=S)Nc2ccc(F)c(Cl)c2)S1(=O)=O | 9.37
Cc1ccc(NC(=S)N(Cc2cccs2)Cc2cc3cc(C)ccc3[nH]c2=O)cc1 | 9.62
O=C(Nc1nnc(S(=O)(=O)N2CCOCC2)s1)c1ccccc1F | 16.7
C=CCn1c(SCC(=O)N(C)C2CCS(=O)(=O)C2)nnc1-c1ccncc1 (stereo not drawn) | -1.94
CCn1c(=O)c(C(=O)Nc2ccccc2S(N)(=O)=O)c(O)c2ccccc21 | 15.8
CC(=O)N1CCN(C2=NC(=O)C(=C3CCCCC3)S2)CC1 | -23.8
COc1cc2c(cc1NC(=O)CCCN1C(=O)CCC1=O)oc1ccccc12 | -5.16
O=C(/C=C/c1cn(CC(O)CN2CCOCC2)c2ccccc12)c1cccs1 (stereo not drawn) | -21.8
O=C(CSc1nnc(CNC(=O)c2cccs2)o1)Nc1ccccc1 | 3.08
CCN(CC)c1ccc(C(=S)NCc2ccccc2)cc1 | 13
Cc1cccc(CC2CC(=O)N(CCc3ccc4c(c3)OCO4)C2=O)c1 (stereo not drawn) | 34.2
COC(=O)C(C(=O)OC)c1ccccc1[N+](=O)[O-] | 15.3
Cc1ccc(S(=O)(=O)NC(=S)c2ccccc2)cc1 | 15.8
CCCCC(=O)NC1(C(F)(F)F)NC(=O)N(C)C1=O (stereo not drawn) | 11.3
Cc1ccc(C)c(N(C(=O)c2snc(C(N)=O)c2N)C(C(=O)NCC2CCCO2)c2ccc(C)o2)c1 (stereo not drawn) | 3.36
COc1ccc(OCc2cc(C(=O)N(C)C3CCOCC3)no2)c2ccccc12 | -17.5
C[C@@H]1C[C@H](Nc2ccccc2)c2ccccc2N1C(=O)c1cccnc1 | -14.4
COCCCn1c(=NC(=O)c2ccncc2)c(C#N)cc2c(=O)n3cccc(C)c3nc21 | -68
O=C(COC(=O)c1ccc[nH]c1=O)NC1CCCC1 | 19.3
Cc1ccc(C(=O)NNC(=O)COC(=O)COc2ccccc2C#N)cc1 | 12.8
CCN(c1ccc(OC)cc1)S(=O)(=O)c1ccc2c(c1)CC(C)N2C(=O)C1CC1 (stereo not drawn) | 19.5
